The values that follow come from ChEMBL document CHEMBL4888484, “Replenishing the malaria drug discovery pipeline: Screening and hit evaluation of the MMV Hit Generation Library 1 (HGL1) against asexual blood stage Plasmodium falciparum ,using a nano luciferase reporter read-out” (2022).

Among all 150,000 compounds or so, about 540 (0.36%) showed an effect of 50% or more. The list shows a part of the results.

The test system of the assay is Plasmodium falciparum. The experiment in a line: Primary screen in NF54 nanoGlo assay, in single point, at 2uM, 72h; a lower Z score goes with more inhibition. Type of assay: functional, Erythrocyte. Particulars: timepoint 72 hour.
On to `COc1ccc(NC(=O)[C@H]2CC(=O)N(c3n[nH]c4cccc(F)c34)C2)c(OC)c1`, for which the “% Inhibition” value is listed as -2% and the Z score came out at 0.24.

On to `Cc1nc(CNc2ccccc2NC(=O)Cc2cccs2)cs1`, for which the “% Inhibition” value is listed as -17% and the Z score turned out to be 1.71.

`Cc1ccc(C(=O)NC[C@H]2CCN(Cc3cccnc3)C2)cc1Cl`: the “% Inhibition” value is listed as 7% and the Z score is reported as -0.93.

As for `CC(=O)c1ccc(N2CCN(C(=O)NC3CCC(O)CC3)CC2)cc1` (centres undefined), the “% Inhibition” value was -9% and the Z score is given as 1.45.

In the case of `COc1cccc(-c2n[nH]c3c2CN(C(=O)Cc2cnc4ccccn24)CC3)c1`, the “% Inhibition” value is listed as -15% and the Z score worked out at 2.14.

For `CC1=CC(C)[C@@H]2COC(c3ccc(N(C)C)cc3)[C@H]1C2C` (some centres undefined), the “% Inhibition” value was 2% and the Z score is given as -0.32.

Take `Cc1nnc(-c2ccccc2NC(=O)CCC2CCC(C)O2)o1` (centres undefined): the “% Inhibition” value was 37% and the Z score is -5.32.

For `Cc1ccc(CC(=O)N2CCC(N(C)c3ccc(C)nn3)CC2)cn1`, the “% Inhibition” value is given as -1% and the Z score was 0.13.

Consider `C=CCCC(=O)N[C@@H](C)c1nc(C)c(C(=O)O)s1`, for which the “% Inhibition” value was found to be 1% and the Z score was -0.17.

For the molecule `COC[C@@H]1CN(c2ccncn2)C[C@H]1C(=O)N(C)Cc1ccco1`, the “% Inhibition” value is -11% and the Z score worked out at 1.69.

For `Cn1ccc(C=C(CC(=O)O)c2nc3cc(Cl)ccc3s2)n1`, the “% Inhibition” value is -14% and the Z score came out at 2.75.

On to `O=C(C[C@H]1CCOc2ccccc21)NCCC(=O)N1CCCCCC1`, for which the “% Inhibition” value is reported as 0% and the Z score is 0.07.

Consider `Cc1ccc(C(=O)Nc2ccsc2-c2nnc(C3CC3)o2)cc1F`, for which the “% Inhibition” value is -9% and the Z score worked out at 1.44.

With `Cc1cc(C(=O)Nc2ccnn2[C@H]2CCCc3ccccc32)c(C)o1`, the “% Inhibition” value is on record as -8% and the Z score is on record as 0.82.

As for `Cc1ccc(-c2cc([C@H]3CCN(Cc4ccoc4)C3)ccn2)c2cccnc12`, the “% Inhibition” value was -5% and the Z score came to 1.

On to `CC(C)(C)c1ccc([C@@]2(C)NC(=O)N(Cc3nncs3)C2=O)cc1`, for which the “% Inhibition” value is listed as 2% and the Z score is -0.34.

Take `C[C@@H](c1cncc(F)c1)N1C(=O)NC(CC(F)(F)F)C1=O` (some centres undefined): the “% Inhibition” value is on record as -4% and the Z score was 0.76.

On to `Cc1ccc(S(=O)(=O)C2CCCCC2N[C@@H]2C=C[C@H](CO)C2)cc1` (some centres undefined), for which the “% Inhibition” value is on record as -8% and the Z score amounted to 0.98.

As for `O=C1N(Cc2cc3ccccc3[nH]2)c2ccccc2C12OCCO2`, the “% Inhibition” value was found to be 1% and the Z score is -0.09.

Consider `COC(=O)N(C)CCCC(=O)Nc1nn(C)c2cc(C)n(C)c(=O)c12`, for which the “% Inhibition” value is reported as -14% and the Z score came to 1.85.

In the case of `NC(=NCc1ccco1)Nc1ccc(OC(F)(F)F)cc1`, the “% Inhibition” value is given as -10% and the Z score came to 1.55.

Take `CC(=O)c1sc(Nc2ccc3c(c2)OCO3)nc1C`: the “% Inhibition” value is listed as -5% and the Z score is given as 0.71.

Turning to `CC(C)NC(=O)N[C@@H]1CC[C@H]2CCOc3ccccc3C(=O)N3CCN(Cc4ccc5c(c4)OCO5)C[C@H]3C(=O)NC[C@H]1O2`, the “% Inhibition” value is reported as -6% and the Z score came to 0.75.

As for `O=C(c1n[nH]c2ccccc12)N1CCC[C@H](c2nccn2CC2CCC2)C1`, the “% Inhibition” value is -15% and the Z score was found to be 2.08.

Take `Cn1ccn2ncc(C(=O)N3CCn4nc(-c5nc6ccccc6[nH]5)cc4C3)c12`: the “% Inhibition” value is recorded as -23% and the Z score stood at 2.22.

On to `CC(C)(O)CN1CCN(C(=O)C[C@@H]2OCCc3sccc32)CC1`, for which the “% Inhibition” value is listed as 5% and the Z score is listed as -0.85.

For `COc1cccc(CN2CCCCC23CC3)c1O[C@@H](C)C(=O)O`, the “% Inhibition” value is given as -11% and the Z score is reported as 1.41.

Take `Cc1cnc(CN2CCC([C@@H](O)CCc3ccccc3)CC2)c(C)c1O`: the “% Inhibition” value is -3% and the Z score came to 0.5.

Regarding `CC(C)c1nc(CN2C(=O)CNC2=O)n(Cc2c(F)cccc2Cl)n1`, the “% Inhibition” value amounted to 17% and the Z score was -2.17.

`CC(C)n1ccc(CN2CCN(C[C@H](O)COc3ccccc3)CC2)n1`: the “% Inhibition” value worked out at 8% and the Z score is on record as -0.91.

Consider `O=C(c1n[nH]c2c1CCCC2)N1CCc2nc[nH]c2C1`, for which the “% Inhibition” value is -10% and the Z score is given as 1.2.

`COc1nc2c(cc1CNC(=O)CCC1CC1)C(=O)N(C1CCCC1)C2`: the “% Inhibition” value was 5% and the Z score is reported as -0.72.

In the case of `Cc1noc(C)c1S(=O)(=O)N1CCc2[nH]c3ccccc3c2C1`, the “% Inhibition” value was -15% and the Z score is given as 2.78.

Regarding `Cc1ccnc(NC(=O)CNC(=O)C2CCCCC2)c1`, the “% Inhibition” value is on record as -1% and the Z score came out at 0.13.

Regarding `CC1CCC2=NN(c3nc4ccccc4s3)C(O)(C(F)(F)F)C2C1` (centres undefined), the “% Inhibition” value is given as -3% and the Z score is on record as 0.45.

Turning to `O=C(CCC(=O)Nc1cccnc1)Nc1cccnc1`, the “% Inhibition” value is -1% and the Z score was 0.07.

For the molecule `CCc1nnc(Cn2cnc3ccccc3c2=O)o1`, the “% Inhibition” value is -2% and the Z score is 0.22.

For `CCOc1ccc(S(=O)(=O)N2CCC3(CC2)CN(C)C[C@@H]3COC)cc1`, the “% Inhibition” value stood at 2% and the Z score was -0.21.

For `CC[C@H]1CN(S(=O)(=O)c2ccccc2)CC[C@H]1CC(=O)N(C)CCC#N`, the “% Inhibition” value is on record as -8% and the Z score was 1.23.

As to `CC(C)CC(C)(C)CNS(=O)(=O)Cc1ccon1`, the “% Inhibition” value is listed as -12% and the Z score came to 1.65.

On to `Cc1ccc(N(C)c2nc(-c3ccc(F)cc3)ncc2C(=O)N(C)C2CCCCC2)cc1`, for which the “% Inhibition” value is on record as -26% and the Z score is on record as 2.75.

Regarding `CCCC(=O)NCCn1nc(-c2ccc(F)cc2)n(C2CC2)c1=O`, the “% Inhibition” value is given as -7% and the Z score is 1.35.
